The structures appear in SMILES notation. Screen size: about 310,000 compounds; about 2,200 (0.71%) showed an effect of 50% or more. The effect is printed as a negative number. This is one part of the list.

The target in the assay is human ether-à-go-go-related gene (hERG) potassium channel (human, UniProt Q12809). The assay is described as follows: primary screen, population patch clamp on CHO cells stably expressing hERG.
human ether-à-go-go-related gene (hERG) potassium channel, sequence (Q12809 whole entry, looked up): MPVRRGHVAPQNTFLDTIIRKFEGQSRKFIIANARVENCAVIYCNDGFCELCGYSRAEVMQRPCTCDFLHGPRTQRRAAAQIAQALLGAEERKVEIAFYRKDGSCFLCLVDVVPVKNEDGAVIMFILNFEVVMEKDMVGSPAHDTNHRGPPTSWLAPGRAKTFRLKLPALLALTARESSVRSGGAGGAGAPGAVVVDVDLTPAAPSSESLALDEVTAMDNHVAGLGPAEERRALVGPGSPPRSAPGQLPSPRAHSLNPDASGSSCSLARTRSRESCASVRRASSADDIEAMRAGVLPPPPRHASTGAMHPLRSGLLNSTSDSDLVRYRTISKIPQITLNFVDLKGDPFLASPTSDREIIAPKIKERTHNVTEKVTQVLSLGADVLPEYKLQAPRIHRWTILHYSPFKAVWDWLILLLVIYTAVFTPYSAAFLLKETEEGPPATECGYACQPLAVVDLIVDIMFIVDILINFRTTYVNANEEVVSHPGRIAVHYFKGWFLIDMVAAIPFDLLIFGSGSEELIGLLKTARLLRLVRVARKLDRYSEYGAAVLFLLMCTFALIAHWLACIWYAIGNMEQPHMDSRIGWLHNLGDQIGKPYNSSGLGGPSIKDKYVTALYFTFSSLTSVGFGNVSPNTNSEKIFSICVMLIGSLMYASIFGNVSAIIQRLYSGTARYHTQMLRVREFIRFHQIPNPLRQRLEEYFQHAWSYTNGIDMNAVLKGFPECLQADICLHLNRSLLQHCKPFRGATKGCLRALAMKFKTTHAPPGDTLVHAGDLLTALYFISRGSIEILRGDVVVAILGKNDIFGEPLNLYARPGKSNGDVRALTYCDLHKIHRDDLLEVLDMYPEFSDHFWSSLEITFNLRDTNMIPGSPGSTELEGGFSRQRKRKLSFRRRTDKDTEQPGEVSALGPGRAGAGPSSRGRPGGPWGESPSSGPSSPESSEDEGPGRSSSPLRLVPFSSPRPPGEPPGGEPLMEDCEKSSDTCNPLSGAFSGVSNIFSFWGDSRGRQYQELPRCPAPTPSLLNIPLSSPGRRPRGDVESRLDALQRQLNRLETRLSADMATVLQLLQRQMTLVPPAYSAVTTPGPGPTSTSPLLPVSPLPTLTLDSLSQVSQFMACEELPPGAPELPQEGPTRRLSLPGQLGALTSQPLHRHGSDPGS
For the molecule `c1ccc(CCN2CCN=C2Nc2ccccc2)cc1`, the “hERG current change (%, negative = inhibition) at 1uM” value came out at 1.68%.
Under `CCCCC(=O)N/N=C/c1c(O)n(Cc2ccc(F)cc2)c(=O)[nH]c1=O` stands 13.9%; under `O=C(O)C(=O)O.O=[N+]([O-])c1ccc(Oc2ccc(C(F)(F)F)cn2)cc1`, 9.14%; under `O=c1c(C(c2ccc(Br)cc2)c2c(O)nc3n(c2=O)CCS3)c(O)nc2n1CCS2`, 7.39%.
For `Cc1nn(CC2CC2)c(=O)n1-c1ccc(Oc2ccccc2)cc1`, the “hERG current change (%, negative = inhibition) at 1uM” value amounted to 11.2%.
Under `COc1ccc(CC2(CO)CCN(Cc3ccncc3)CC2)cc1` stands 7.36%; under `CCC(CC)CN1C(Nc2ccccc2)=NC[C@@H]1CC(C)C`, -23.5%; under `COc1ccc(Cc2[nH]n3c(=O)cc(C)nc3c2-c2ccccc2)cc1`, 14.3%.
`COc1ccc(N2C(C)=CS/C2=C(/C#N)c2nnc(N3CCOCC3)n2-c2ccccc2)cc1`: the “hERG current change (%, negative = inhibition) at 1uM” value was found to be 4.17%.
To `Cc1c(C(=O)N2CC3(CC(c4cccc(NC(=O)[C@H]5CCC(=O)N5)c4)=NO3)C[C@@H]2C(N)=O)cc([N+](=O)[O-])cc1[N+](=O)[O-]` (some centres unmarked) belongs 9.97%.
To `O=C1NCCC/C1=N\Nc1ccc(Br)cc1` belongs 16.4%; to `COC(=O)Nc1cc([N+](=O)[O-])ccc1OC`, 22.4%; to `CCOc1ccccc1C(=O)NCCNC(=O)c1ccccc1OCC`, 12%.
Under `Cc1cc(C)n2c(SCC(=O)Nc3c(C)n(C)n(-c4ccccc4)c3=O)nnc2n1` stands 1.38%.
Turning to `Cc1ccc(-c2cc(C(=O)Nc3ccccn3)c3ccccc3n2)o1`, the “hERG current change (%, negative = inhibition) at 1uM” value was found to be 6.73%.
Under `CCCCNc1ccc(C(CC(N)=O)NC(=O)Cc2ccc(Br)cc2)cc1[N+](=O)[O-]` (centres unmarked) stands 5.02%; under `COCCCNC(=O)c1c(N)n(/N=C/c2cccs2)c2nc3ccccc3nc12`, 11.2%.
To `O=C(Cc1ccc(Cl)cc1)NNS(=O)(=O)c1ccc([N+](=O)[O-])cc1` belongs 10.7%.
To `O=c1cc(N2CCN(c3ccccc3)CC2)[nH]c(=O)n1-c1ccccc1Cl` belongs 0.685%; to `COc1cc(C(c2sc3nc(C)nn3c2O)N2CCc3ccccc3C2)cc(OC)c1OC` (centres unmarked), 9.9%.
On to `O=C(Nc1ccccc1N1CCN(C(=O)c2ccc(Cl)cc2)CC1)c1cc(Br)ccc1Cl`, for which the “hERG current change (%, negative = inhibition) at 1uM” value is reported as -5.44%.
As to `CC(=O)OCCOc1nc(N(C)C)nc(N(C)C)n1`, the “hERG current change (%, negative = inhibition) at 1uM” value is given as 7.05%.
Under `O=c1c2ccccc2sn1-c1ccccc1` stands 12.5%.
Under `Cc1ccc(N(CC(=O)NC2CC3CCC2C3)S(C)(=O)=O)cc1C` (centres unmarked) stands 1.45%.
As for `CCOC(=O)CC(N)c1ccc(OC)cc1.Cl` (centres unmarked), the “hERG current change (%, negative = inhibition) at 1uM” value was determined as 8.64%.
With `COc1ccc(OC)c(S(=O)(=O)N2CCCC(C(=O)N3CCCC3)C2)c1` (centres unmarked), the “hERG current change (%, negative = inhibition) at 1uM” value is 3.69%.
Under `CCOc1ccc(OCC)c(S(=O)(=O)N2CCCCC2C)c1` (centres unmarked) stands -26.7%; under `COC(=O)/C(C(C)=O)=C(\C=C\N(C)C)N(C)C`, 10.5%.
Under `CC(=O)Nc1cccc(NC(=O)CS(=O)(=O)c2cn(CC(=O)N3CCOCC3)c3ccccc23)c1` stands 1.89%; under `O=c1[nH]c(CN2CCN(C/C=C/c3ccccc3)CC2)nc2cc(Cl)ccc12`, -108%.
To `CC(Sc1nnc(COc2ccc(Cl)cc2)n1-c1ccccc1)C(=O)O` (centres unmarked) belongs 6.25%; to `COc1ccc(/C=C/C(=O)OCC(=O)NCC2CCCO2)cc1` (centres unmarked), 8.2%.
For `COc1ccc(N(CC(=O)N/N=C/c2ccco2)S(=O)(=O)c2ccccc2)cc1`, the “hERG current change (%, negative = inhibition) at 1uM” value is 0.535%.
Under `COCCNC(=S)NCCc1ccc(Cl)cc1Cl` stands 13.7%; under `CN(C)CCCNC(=S)N1CCN(c2nc(-c3ccccc3)cs2)CC1`, 6.05%; under `COc1cccc2c1OCC(CN1CCN(CCC(C)C)C(CCO)C1)=C2` (centres unmarked), 10.2%.
Regarding `O=C(NCCCN1CCOCC1)c1cc2ccccc2cc1O`, the “hERG current change (%, negative = inhibition) at 1uM” value worked out at 12.4%.
To `FC(F)(F)c1nnc2n1N=C(c1cccs1)CS2` belongs 2.96%.
To `CC(Oc1cccc(Br)c1)C(=O)NNC(=O)CCNC(=O)c1ccccc1Cl` (centres unmarked) belongs 6.78%; to `CCN(CC(=O)NCc1ccc(Cl)cc1)C(=O)C(C)Sc1ccccc1` (centres unmarked), 1.51%; to `CC1=C(C)CS(=O)N(c2ccc(S(N)(=O)=O)cc2)C1` (centres unmarked), 5.7%.
To `CC1CCCCC1NS(=O)(=O)c1ccc2c(c1)CC(=O)N2C` (centres unmarked) belongs 15.6%.
With `COCCOC(=O)c1[nH]c2c(c1C)C(=O)CC(c1ccc(OC)c(OC)c1)C2` (centres unmarked), the “hERG current change (%, negative = inhibition) at 1uM” value was 6.85%.
Take `CCS(=O)(=O)Nc1cccc(-c2nc3cccnc3s2)c1`: the “hERG current change (%, negative = inhibition) at 1uM” value is -5.44%.
